# Laboratory results as given in the antibiotic and cytotoxicity screens of Wong et al. (2023).
# This is one part of the list.
# Test system: HepG2
# Test: cytotoxicity call (relative viability < 0.9)
# Conditions: 10 µM
row,Compound,cytotoxicity call
1,Cc1ccc(S(=O)(=O)Nc2ccc3c(c2)C(=O)N([C@@H](C)CO)C[C@H](C)[C@H](CN(C)Cc2ccc(Cl)c(Cl)c2)O3)cc1,inactive
2,C[C@@H]1CN([C@H](C)CO)C(=O)c2cc(NC(=O)NC3CCCCC3)ccc2O[C@@H]1CN(C)Cc1ccc(C(=O)Nc2ccccc2N)cc1,inactive
3,C[C@@H]1CN([C@@H](C)CO)C(=O)Cc2cc(NS(=O)(=O)c3ccccc3)ccc2O[C@H]1CN(C)Cc1ccc(C(=O)O)cc1,inactive
4,C[C@H]1CN([C@@H](C)CO)C(=O)c2cc(NC(=O)c3ccncc3)ccc2O[C@@H]1CN(C)S(=O)(=O)c1cccs1,inactive
5,O=C(C[C@H]1CC[C@@H]2[C@H](COC[C@H](O)CN2S(=O)(=O)c2ccccc2)O1)NCCN1CCCC1,inactive
6,Cc1noc(C)c1S(=O)(=O)N(C)C[C@H]1Oc2ccc(NC(=O)CCC(F)(F)F)cc2CC(=O)N([C@H](C)CO)C[C@H]1C,inactive
7,C[C@H](CO)N1C[C@H](C)[C@@H](CN(C)C(=O)Nc2ccc(C(F)(F)F)cc2)OCCCC[C@H](C)Oc2ccc(NC(=O)C3CCCCC3)cc2C1=O,inactive
8,COc1ccc(NC(=O)Nc2ccc3c(c2)C(=O)N([C@H](C)CO)C[C@@H](C)[C@H](CN(C)S(=O)(=O)c2ccc(OC)cc2)OCCCC[C@H](C)O3)cc1,inactive
